Test results as given in the supplement of paper PMC11876631.
± gives the standard deviation of the averaged measurements. Laboratory Escherichia coli strains with one amino-acid change in an essential protein, pooled on minimal glucose agar with carbenicillin or gentamicin at twice the control MIC (plus kanamycin and chloramphenicol for the plasmids), 48 h. Fold change of barcode share against drug-free plates; higher = less susceptible. Active = above 20 in both replicates (the paper's putatively resistant). '<' = one read or none on drug, '>' = one read or none on a drug-free plate. Shares are relative, so most strains fall below 1 when a few take over. Listed are strains with at least 15 reads on both drug-free plates, and hits; most hits rest on fewer reference reads. Replicate rank correlation about 0.5. Edits are read from barcodes.

B1: proB I313A (protein)
chain: MSDSQTLVVKLGTSVLTGGSRRLNRAHIVELVRQCAQLHAAGHRIVIVTSGAIAAGREHLGYPELPATIASKQLLAAVGQSRLIQLWEQLFSIYGIHVGQMLLTRADMEDRERFLNARDTLRALLDNNIVPVINENDAVATAEIKVGDNDNLSALAAILAGADKLLLLTDQKGLYTADPRSNPQAELIKDVYGIDDALRAIAGDSVSGLGTGGMSTKLQAADVACRAGIDTIIAAGSKPGVIGDVMEGISVGTLFHAQATPLENRKRWIFGAPPAGEITVDEGATAAILERGSSLLPKGIKSVTGNFSRGEVARICNLEGRDIAHGVSRYNSDALRRIAGHHSQEIDAILGYEYGPVAVHRDDMITR
B2: proB V130Q (protein)
chain: MSDSQTLVVKLGTSVLTGGSRRLNRAHIVELVRQCAQLHAAGHRIVIVTSGAIAAGREHLGYPELPATIASKQLLAAVGQSRLIQLWEQLFSIYGIHVGQMLLTRADMEDRERFLNARDTLRALLDNNIQPVINENDAVATAEIKVGDNDNLSALAAILAGADKLLLLTDQKGLYTADPRSNPQAELIKDVYGIDDALRAIAGDSVSGLGTGGMSTKLQAADVACRAGIDTIIAAGSKPGVIGDVMEGISVGTLFHAQATPLENRKRWIFGAPPAGEITVDEGATAAILERGSSLLPKGIKSVTGNFSRGEVIRICNLEGRDIAHGVSRYNSDALRRIAGHHSQEIDAILGYEYGPVAVHRDDMITR
B3: proB I45P (protein)
chain: MSDSQTLVVKLGTSVLTGGSRRLNRAHIVELVRQCAQLHAAGHRPVIVTSGAIAAGREHLGYPELPATIASKQLLAAVGQSRLIQLWEQLFSIYGIHVGQMLLTRADMEDRERFLNARDTLRALLDNNIVPVINENDAVATAEIKVGDNDNLSALAAILAGADKLLLLTDQKGLYTADPRSNPQAELIKDVYGIDDALRAIAGDSVSGLGTGGMSTKLQAADVACRAGIDTIIAAGSKPGVIGDVMEGISVGTLFHAQATPLENRKRWIFGAPPAGEITVDEGATAAILERGSSLLPKGIKSVTGNFSRGEVIRICNLEGRDIAHGVSRYNSDALRRIAGHHSQEIDAILGYEYGPVAVHRDDMITR
B4: proB I47W (protein)
chain: MSDSQTLVVKLGTSVLTGGSRRLNRAHIVELVRQCAQLHAAGHRIVWVTSGAIAAGREHLGYPELPATIASKQLLAAVGQSRLIQLWEQLFSIYGIHVGQMLLTRADMEDRERFLNARDTLRALLDNNIVPVINENDAVATAEIKVGDNDNLSALAAILAGADKLLLLTDQKGLYTADPRSNPQAELIKDVYGIDDALRAIAGDSVSGLGTGGMSTKLQAADVACRAGIDTIIAAGSKPGVIGDVMEGISVGTLFHAQATPLENRKRWIFGAPPAGEITVDEGATAAILERGSSLLPKGIKSVTGNFSRGEVIRICNLEGRDIAHGVSRYNSDALRRIAGHHSQEIDAILGYEYGPVAVHRDDMITR
B5: proB F255W (protein)
chain: MSDSQTLVVKLGTSVLTGGSRRLNRAHIVELVRQCAQLHAAGHRIVIVTSGAIAAGREHLGYPELPATIASKQLLAAVGQSRLIQLWEQLFSIYGIHVGQMLLTRADMEDRERFLNARDTLRALLDNNIVPVINENDAVATAEIKVGDNDNLSALAAILAGADKLLLLTDQKGLYTADPRSNPQAELIKDVYGIDDALRAIAGDSVSGLGTGGMSTKLQAADVACRAGIDTIIAAGSKPGVIGDVMEGISVGTLWHAQATPLENRKRWIFGAPPAGEITVDEGATAAILERGSSLLPKGIKSVTGNFSRGEVIRICNLEGRDIAHGVSRYNSDALRRIAGHHSQEIDAILGYEYGPVAVHRDDMITR
B6: proB V46A (protein)
chain: MSDSQTLVVKLGTSVLTGGSRRLNRAHIVELVRQCAQLHAAGHRIAIVTSGAIAAGREHLGYPELPATIASKQLLAAVGQSRLIQLWEQLFSIYGIHVGQMLLTRADMEDRERFLNARDTLRALLDNNIVPVINENDAVATAEIKVGDNDNLSALAAILAGADKLLLLTDQKGLYTADPRSNPQAELIKDVYGIDDALRAIAGDSVSGLGTGGMSTKLQAADVACRAGIDTIIAAGSKPGVIGDVMEGISVGTLFHAQATPLENRKRWIFGAPPAGEITVDEGATAAILERGSSLLPKGIKSVTGNFSRGEVIRICNLEGRDIAHGVSRYNSDALRRIAGHHSQEIDAILGYEYGPVAVHRDDMITR
B7: proB I45A (protein)
chain: MSDSQTLVVKLGTSVLTGGSRRLNRAHIVELVRQCAQLHAAGHRAVIVTSGAIAAGREHLGYPELPATIASKQLLAAVGQSRLIQLWEQLFSIYGIHVGQMLLTRADMEDRERFLNARDTLRALLDNNIVPVINENDAVATAEIKVGDNDNLSALAAILAGADKLLLLTDQKGLYTADPRSNPQAELIKDVYGIDDALRAIAGDSVSGLGTGGMSTKLQAADVACRAGIDTIIAAGSKPGVIGDVMEGISVGTLFHAQATPLENRKRWIFGAPPAGEITVDEGATAAILERGSSLLPKGIKSVTGNFSRGEVIRICNLEGRDIAHGVSRYNSDALRRIAGHHSQEIDAILGYEYGPVAVHRDDMITR
B8: proB I47A (protein)
chain: MSDSQTLVVKLGTSVLTGGSRRLNRAHIVELVRQCAQLHAAGHRIVAVTSGAIAAGREHLGYPELPATIASKQLLAAVGQSRLIQLWEQLFSIYGIHVGQMLLTRADMEDRERFLNARDTLRALLDNNIVPVINENDAVATAEIKVGDNDNLSALAAILAGADKLLLLTDQKGLYTADPRSNPQAELIKDVYGIDDALRAIAGDSVSGLGTGGMSTKLQAADVACRAGIDTIIAAGSKPGVIGDVMEGISVGTLFHAQATPLENRKRWIFGAPPAGEITVDEGATAAILERGSSLLPKGIKSVTGNFSRGEVIRICNLEGRDIAHGVSRYNSDALRRIAGHHSQEIDAILGYEYGPVAVHRDDMITR
B9: proB F255A (protein)
chain: MSDSQTLVVKLGTSVLTGGSRRLNRAHIVELVRQCAQLHAAGHRIVIVTSGAIAAGREHLGYPELPATIASKQLLAAVGQSRLIQLWEQLFSIYGIHVGQMLLTRADMEDRERFLNARDTLRALLDNNIVPVINENDAVATAEIKVGDNDNLSALAAILAGADKLLLLTDQKGLYTADPRSNPQAELIKDVYGIDDALRAIAGDSVSGLGTGGMSTKLQAADVACRAGIDTIIAAGSKPGVIGDVMEGISVGTLAHAQATPLENRKRWIFGAPPAGEITVDEGATAAILERGSSLLPKGIKSVTGNFSRGEVIRICNLEGRDIAHGVSRYNSDALRRIAGHHSQEIDAILGYEYGPVAVHRDDMITR
B10: proB L168A (protein)
chain: MSDSQTLVVKLGTSVLTGGSRRLNRAHIVELVRQCAQLHAAGHRIVIVTSGAIAAGREHLGYPELPATIASKQLLAAVGQSRLIQLWEQLFSIYGIHVGQMLLTRADMEDRERFLNARDTLRALLDNNIVPVINENDAVATAEIKVGDNDNLSALAAILAGADKLLLATDQKGLYTADPRSNPQAELIKDVYGIDDALRAIAGDSVSGLGTGGMSTKLQAADVACRAGIDTIIAAGSKPGVIGDVMEGISVGTLFHAQATPLENRKRWIFGAPPAGEITVDEGATAAILERGSSLLPKGIKSVTGNFSRGEVIRICNLEGRDIAHGVSRYNSDALRRIAGHHSQEIDAILGYEYGPVAVHRDDMITR
B11: proB V130A (protein)
chain: MSDSQTLVVKLGTSVLTGGSRRLNRAHIVELVRQCAQLHAAGHRIVIVTSGAIAAGREHLGYPELPATIASKQLLAAVGQSRLIQLWEQLFSIYGIHVGQMLLTRADMEDRERFLNARDTLRALLDNNIAPVINENDAVATAEIKVGDNDNLSALAAILAGADKLLLLTDQKGLYTADPRSNPQAELIKDVYGIDDALRAIAGDSVSGLGTGGMSTKLQAADVACRAGIDTIIAAGSKPGVIGDVMEGISVGTLFHAQATPLENRKRWIFGAPPAGEITVDEGATAAILERGSSLLPKGIKSVTGNFSRGEVIRICNLEGRDIAHGVSRYNSDALRRIAGHHSQEIDAILGYEYGPVAVHRDDMITR
B12: proA L402Q (protein)
chain: MLEQMGIAAKQASYKLAQLSSREKNRVLEKIADELEAQSEIILNANAQDVADARANGLSEAMLDRLALTPARLKGIADDVRQVCNLADPVGQVIDGGVLDSGLRLERRRVPLGVIGVIYEARPNVTVDVASLCLKTGNAVILRGGKETCRTNAATVAVIQDALKSCGLPAGAVQAIDNPDRALVSEMLRMDKYIDMLIPRGGAGLHKLCREQSTIPVITGGIGVCHIYVDESVEIAEALKVIVNAKTQRPSTCNTVETLLVNKNIADSFLPALSKQMAESGVTLHADAAALAQLQAGPAKVVAVKAEEYDDEFLSLDLNVKIVSDLDDAIAHIREHGTQHSDAILTRDMRNAQRFVNEVDSSAVYVNASTRFTDGGQFGLGAEVAVSTQKLHARGPMGLEAQTTYKWIGIGDYTIRA
B13: proA L402P (protein)
chain: MLEQMGIAAKQASYKLAQLSSREKNRVLEKIADELEAQSEIILNANAQDVADARANGLSEAMLDRLALTPARLKGIADDVRQVCNLADPVGQVIDGGVLDSGLRLERRRVPLGVIGVIYEARPNVTVDVASLCLKTGNAVILRGGKETCRTNAATVAVIQDALKSCGLPAGAVQAIDNPDRALVSEMLRMDKYIDMLIPRGGAGLHKLCREQSTIPVITGGIGVCHIYVDESVEIAEALKVIVNAKTQRPSTCNTVETLLVNKNIADSFLPALSKQMAESGVTLHADAAALAQLQAGPAKVVAVKAEEYDDEFLSLDLNVKIVSDLDDAIAHIREHGTQHSDAILTRDMRNAQRFVNEVDSSAVYVNASTRFTDGGQFGLGAEVAVSTQKLHARGPMGLEAPTTYKWIGIGDYTIRA

Each protein was assayed against Escherichia coli (laboratory strain) (assay: barcode share on antibiotic plates over drug-free plates; higher = less susceptible). Settings: antibiotic: carbenicillin; 2× MIC (3.1 µg/mL).
Experimental: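 A pool of E. coli strains, each edited to carry one amino-acid change in an essential protein, was grown for 48 h on minimal glucose agar with or without antibiotic; strain barcodes were sequenced; mean of two replicates.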
B1 was tested, and the “fold change of barcode share” value was 0.513 ± 0.052.
In the case of B2, the “fold change of barcode share” value is reported as 0.427 ± 0.38.
B3 was tested, and the “fold change of barcode share” value was 1.32 ± 1.
In the case of B4, the “fold change of barcode share” value is reported as 1.99 ± 0.084.
B5 was tested, and the “fold change of barcode share” value was 0.48 ± 0.11.
For B6, the “fold change of barcode share” value was 0.722 ± 0.44.
With B7 the “fold change of barcode share” value was 0.604 ± 0.36.
B8 was tested, and the “fold change of barcode share” value was 1.47 ± 1.2.
B9 was tested, and the “fold change of barcode share” value was 0.444 ± 0.16.
For B10, the “fold change of barcode share” value was 0.371 ± 0.072.
In the case of B11, the “fold change of barcode share” value is reported as 0.51 ± 0.015.
With B12 the “fold change of barcode share” value was 0.339 ± 0.075.
With B13 the “fold change of barcode share” value was 25.6 [active].

Same assay, conditions: antibiotic: gentamicin; 2× MIC (MIC 0.45 µg/mL)
B1 was tested, and the “fold change of barcode share” value was 0.013 ± 0.0094.
In the case of B3, the “fold change of barcode share” value is reported as less than 0.00556.
For B4, the “fold change of barcode share” value was 0.00419 ± 0.0024.
In the case of B5, the “fold change of barcode share” value is reported as less than 0.00806.
For B6, the “fold change of barcode share” value was less than 0.00357.
In the case of B7, the “fold change of barcode share” value is reported as less than 0.0034.
With B8 the “fold change of barcode share” value was 0.0277 ± 0.011.
B9 was tested, and the “fold change of barcode share” value was less than 0.0119.
In the case of B10, the “fold change of barcode share” value is reported as less than 0.00917.
B11 was tested, and the “fold change of barcode share” value was less than 0.0181.
In the case of B12, the “fold change of barcode share” value is reported as 0.0129 ± 0.01.
